Out of some 3,200 compounds screened, about 75 (2%) showed an effect of 50% or more. The list shows a part of the results.
The molecules below were run on T1, S. aureus MSSA476. Details: relative growth, OD600, TSB; 25 µM; inhibitor.
T1 construct: MSSA476
Parameters: species or system S. aureus MSSA476 (TSB) or V. cholerae SAD30 (LB); 384-well bacterial growth screen at 25 uM, OD600 relative to DMSO control

Compound	% of control remaining
Cc1ccc(NC(=O)C(C#N)=Cc2ccc(C)s2)c(C)c1 [8-D09, 2-cyano-N-(2,4-dimethylphenyl)-3-(5-methylthiophen-2-yl)prop-2-enamide]	105.56%
Cn1cc(C=C(C#N)C(=O)NCc2ccco2)cn1 [8-L06, 2-cyano-N-[(furan-2-yl)methyl]-3-(1-methyl-1H-pyrazol-4-yl)prop-2-enamide]	120.166%
C=CC(=O)N1CCCCC1c1noc(C2CC2)n1 (stereo not shown) [3-K12, 1-[2-(5-cyclopropyl-1,2,4-oxadiazol-3-yl)piperidin-1-yl]prop-2-en-1-one]	93.3391%
O=C(CCl)N1N=C(C=Cc2ccco2)CC1c1ccco1 (stereo not shown) [4-M22, 2-chloro-1-[5-(furan-2-yl)-3-[2-(furan-2-yl)ethenyl]-4,5-dihydro-1H-pyrazol-1-yl]ethan-1-one]	86.8985%
CC(Cl)C(=O)N1CCNC(=O)C1Cc1nc2ccccc2o1 (stereo not shown) [6-P03, 3-[(1,3-benzoxazol-2-yl)methyl]-4-(2-chloropropanoyl)piperazin-2-one]	97.3171%
O=C(CCl)N(Cc1ccccc1)CC(F)(F)F [4-B20, N-benzyl-2-chloro-N-(2,2,2-trifluoroethyl)acetamide]	114.34%
N#CC(=Cc1cc([N+](=O)[O-])ccc1Cl)C(N)=O [8-F21, 3-(2-chloro-5-nitrophenyl)-2-cyanoprop-2-enamide]	115.851%
COc1cccc2c1CCC2(CO)NC(=O)CCl (stereo not shown) [5-C20, 2-chloro-N-[1-(hydroxymethyl)-4-methoxy-2,3-dihydro-1H-inden-1-yl]acetamide]	98.3607%
CC(Cl)C(=O)N(C)C1CCCCC1 (stereo not shown) [5-J04, 2-chloro-N-cyclohexyl-N-methylpropanamide]	100.546%
CCCN(Cc1ccc(C)cc1)C(=O)CCl [5-J09, 2-chloro-N-[(4-methylphenyl)methyl]-N-propylacetamide]	98.3607%
O=C(CCl)Nc1ccc(S(=O)(=O)c2ccc(F)cc2)cc1 [6-O14, 2-chloro-N-[4-(4-fluorobenzenesulfonyl)phenyl]acetamide]	109.268%
O=C(CCl)N(Cc1ccccc1)Cc1cc2n(n1)CCCC2 [5-L03, N-benzyl-2-chloro-N-({4H,5H,6H,7H-pyrazolo[1,5-a]pyridin-2-yl}methyl)acetamide]	92.1676%
C=CC(=O)N(C)CC(=O)N1CCCC(CC(N)=O)CC1 (stereo not shown) [3-C20, N-{2-[4-(carbamoylmethyl)azepan-1-yl]-2-oxoethyl}-N-methylprop-2-enamide]	104.832%
